# Structures can show the parent of a compound that is named as a salt. In all, about 2,000 compounds were measured (“fractional viability relative to vehicle”: median about 0.91, lowest 2% from about 0.045 on). The list shows a part of the results.
# Test system: TYKNU
# Test: fractional viability relative to vehicle; TYKNU is a high-grade serous ovarian cancer line; higher = less growth inhibition
# Conditions: 72 h
# How it was run: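 Drug treatment lasted 72 h, with cells grown at 37 °C in 5% CO2 in RPMI 1640 supplemented with 10% FBS. Beforehand, TYKNU control cells or their lentiCRISPRv2 knockout derivatives had been seeded at 500 cells per well into drug-stamped 384-well plates carrying a ~2100-compound library at 2 or 10 μM, in duplicate. Viability came from Cell Titer Glo luminescence, with averaged duplicate treatment wells normalised to duplicate control wells in the same plate position.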
# [1] = 2uM, genotype: DNM1L knockout (sgDNM1L #1)
# [2] = 2uM, genotype: sgCTRLA1 (non-targeting control)
# [3] = 10uM, genotype: DNM1L knockout (sgDNM1L #1)
# [4] = 10uM, genotype: sgCTRLA1 (non-targeting control)
structure (smiles),measurement,setting,value
CO[C@H]1C[C@@H]2CC[C@@H](C)[C@@](O)(O2)C(=O)C(=O)N2CCCC[C@H]2C(=O)O[C@H]([C@H](C)C[C@@H]2CC[C@@H](OC(=O)C(C)(CO)CO)[C@H](OC)C2)CC(=O)[C@H](C)/C=C(\C)[C@@H](O)[C@@H](OC)C(=O)[C@H](C)C[C@H](C)/C=C/C=C/C=C/1C,fractional viability,[1],0.493
same,fractional viability,[2],0.339
same,fractional viability,[3],0.277
same,fractional viability,[4],0.207
CCC[C@@H]1C[C@@H](C(=O)N[C@@H]([C@H]2O[C@H](SC)[C@H](O)[C@@H](O)[C@H]2O)[C@@H](C)O)N(C)C1 [Lincomycin HCl],fractional viability,[1],1.24
same,fractional viability,[2],1.04
same,fractional viability,[3],1.13
same,fractional viability,[4],1.01
N#Cc1c(Oc2ccc(F)c(NC(=O)Cc3cccc(C(F)(F)F)c3)c2)ccc2nc(NC(=O)C3CC3)sc12,fractional viability,[1],0.201
same,fractional viability,[2],0.232
same,fractional viability,[3],0.15
same,fractional viability,[4],0.154
Cc1ccc(CNc2ncnc3ccc(-c4ccc(CO)o4)cc23)o1,fractional viability,[1],1.19
same,fractional viability,[2],1.06
same,fractional viability,[3],0.871
same,fractional viability,[4],0.761
CN1C(C(=O)Nc2ccccn2)=C(O)c2sc(Cl)cc2S1(=O)=O [Lornoxicam],fractional viability,[1],1.04
same,fractional viability,[2],1.22
same,fractional viability,[3],0.894
same,fractional viability,[4],0.996
CC12CC3CC(C)(C1)CC(N)(C3)C2 [Memantine HCl],fractional viability,[1],1.05
same,fractional viability,[2],1.03
same,fractional viability,[3],0.94
same,fractional viability,[4],0.86
O=C(O)c1ccc(C=C2SC(=S)N(c3cccc(C(F)(F)F)c3)C2=O)cc1,fractional viability,[1],0.838
same,fractional viability,[2],1.13
same,fractional viability,[3],0.727
same,fractional viability,[4],0.961
COc1ccc(-c2cc(=O)c3c(OC)c(OC)c(OC)c(OC)c3o2)cc1 [Tangeretin],fractional viability,[1],1.09
same,fractional viability,[2],1.29
same,fractional viability,[3],0.961
same,fractional viability,[4],1.24
Cc1cccc(-c2nn3c(c2-c2ccnc4ccc(C(N)=O)cc24)CCC3)n1,fractional viability,[1],1.06
same,fractional viability,[2],1.18
same,fractional viability,[3],0.899
same,fractional viability,[4],1.15
CC(C)c1nc(CN(C)C(=O)N[C@@H](CCN2CCOCC2)C(=O)N[C@H](CC[C@H](Cc2ccccc2)NC(=O)OCc2cncs2)Cc2ccccc2)cs1 [Cobicistat (GS-9350)],fractional viability,[1],0.929
same,fractional viability,[2],1.12
same,fractional viability,[3],0.591
same,fractional viability,[4],0.934
Cc1cc(C)nc(NS(=O)(=O)c2ccc(NC(=S)NC(=O)COc3ccc(Br)cc3Cl)cc2)n1,fractional viability,[1],1.05
same,fractional viability,[2],1.04
same,fractional viability,[3],0.706
same,fractional viability,[4],1.08
O=C(Nc1cccnc1)N1CCC(Cc2cccc(Oc3ccc(C(F)(F)F)cn3)c2)CC1,fractional viability,[1],0.943
same,fractional viability,[2],1.1
same,fractional viability,[3],0.557
same,fractional viability,[4],0.527
CCCCc1oc2ccccc2c1C(=O)c1cc(I)c(OCCN(CC)CC)c(I)c1 [Amiodarone HCl],fractional viability,[1],0.996
same,fractional viability,[2],1.07
same,fractional viability,[3],0.736
same,fractional viability,[4],0.965
O=C(O)c1cccnc1 [Nicotinic Acid],fractional viability,[1],0.906
same,fractional viability,[2],1.11
same,fractional viability,[3],0.981
same,fractional viability,[4],1.05
Cc1cccc(N(C)C(=S)Oc2ccc3ccccc3c2)c1 [Tolnaftate],fractional viability,[1],0.993
same,fractional viability,[2],1.16
same,fractional viability,[3],0.875
same,fractional viability,[4],1.07
C=CCNC1=C2C[C@@H](C)C[C@H](OC)[C@H](O)[C@@H](C)/C=C(\C)[C@H](OC(N)=O)[C@@H](OC)/C=C\C=C(/C)C(=O)NC(=CC1=O)C2=O [17-AAG (Tanespimycin)],fractional viability,[1],0.316
same,fractional viability,[2],0.226
same,fractional viability,[3],0.298
same,fractional viability,[4],0.217
CN1CCN(c2ccc3nc(-c4c(N)c5c(F)cccc5[nH]c4=O)[nH]c3c2)CC1 [Dovitinib (TKI258) Lactate],fractional viability,[1],0.398
same,fractional viability,[2],0.423
same,fractional viability,[3],0.0366
same,fractional viability,[4],0.0252
"CN1CCN(c2ccc3nc(-c4c(N)c5c(F)cccc5[nH]c4=O)[nH]c3c2)CC1 [Dovitinib (TKI-258, CHIR-258)]",fractional viability,[1],0.523
same,fractional viability,[2],0.465
same,fractional viability,[3],0.119
same,fractional viability,[4],0.0963
O=c1[nH]c(=O)n([C@H]2C[C@H](O)[C@@H](CO)O2)cc1I [Idoxuridine],fractional viability,[1],0.843
same,fractional viability,[2],1.07
same,fractional viability,[3],0.836
same,fractional viability,[4],0.886
COc1ccc(-c2ccc3cc(C(=O)O)ccc3c2)cc1C12CC3CC(CC(C3)C1)C2 [Adapalene],fractional viability,[1],0.709
same,fractional viability,[2],1.02
same,fractional viability,[3],0.367
same,fractional viability,[4],0.414
COc1cc2c(NC3CCN(CC4CCCCC4)CC3)nc(N3CCCN(C(C)C)CC3)nc2cc1OCCCN1CCCCC1,fractional viability,[1],0.657
same,fractional viability,[2],0.723
same,fractional viability,[3],0.0227
same,fractional viability,[4],0.00884
NNC(=O)c1ccncc1 [Isoniazid],fractional viability,[1],0.893
same,fractional viability,[2],1.14
same,fractional viability,[3],0.875
same,fractional viability,[4],1.06
CC1(C)C=C(CN2C/C(=C\c3ccc(F)cc3)C(=O)/C(=C/c3ccc(F)cc3)C2)C(C)(C)N1O,fractional viability,[1],0.773
same,fractional viability,[2],0.973
same,fractional viability,[3],0.847
same,fractional viability,[4],0.755
Cc1ccc(S(=O)(=O)OCC(=O)Nc2ccc(C(=O)O)c(O)c2)cc1,fractional viability,[1],0.988
same,fractional viability,[2],1.1
same,fractional viability,[3],0.977
same,fractional viability,[4],1.16
C[C@H]1C[C@H]2[C@@H]3CCC4=CC(=O)C=C[C@]4(C)[C@H]3C(=O)C[C@]2(C)[C@@]1(O)C(=O)CO [Meprednisone],fractional viability,[1],1.04
same,fractional viability,[2],1.07
same,fractional viability,[3],1.12
same,fractional viability,[4],1.09
O=C(O)CCCN1CCC(O[C@@H](c2ccc(Cl)cc2)c2ccccn2)CC1 [Bepotastine Besilate],fractional viability,[1],1.03
same,fractional viability,[2],1.1
same,fractional viability,[3],0.893
same,fractional viability,[4],1
O=C(NC(Cc1cc(=O)[nH]c2ccccc12)C(=O)O)c1ccc(Cl)cc1 (stereo unspecified) [Rebamipide],fractional viability,[1],1.07
same,fractional viability,[2],1.02
same,fractional viability,[3],0.978
same,fractional viability,[4],0.847
COc1ccc2[nH]cc(/C=C3\C(=O)Nc4ccc(NC(=O)CCN5CCCCC5)cc43)c2c1,fractional viability,[1],0.761
same,fractional viability,[2],0.929
same,fractional viability,[3],0.809
same,fractional viability,[4],0.795
COC(=O)/C=C/C(=O)OC [Dimethyl Fumarate],fractional viability,[1],0.886
same,fractional viability,[2],1.07
same,fractional viability,[3],0.762
same,fractional viability,[4],1.12

# Reference: the supplement of paper PMC5919970
